Measured values as given in publication PMC7972451.
Numbering of substitutions follows the chain as printed. These are yes or no findings as the source states them, for the method shown. Binding seen in cells or lysates may run through a third protein. Some results given as binding are weak or reduced against the parent protein; the word gives no strength. Sequences can lack the tags named with a protein.

Protein sequences, listed by entry. Tags and fused reporters are not part of them. Residues count along the entry.
UniProt P19491, residues 22-883: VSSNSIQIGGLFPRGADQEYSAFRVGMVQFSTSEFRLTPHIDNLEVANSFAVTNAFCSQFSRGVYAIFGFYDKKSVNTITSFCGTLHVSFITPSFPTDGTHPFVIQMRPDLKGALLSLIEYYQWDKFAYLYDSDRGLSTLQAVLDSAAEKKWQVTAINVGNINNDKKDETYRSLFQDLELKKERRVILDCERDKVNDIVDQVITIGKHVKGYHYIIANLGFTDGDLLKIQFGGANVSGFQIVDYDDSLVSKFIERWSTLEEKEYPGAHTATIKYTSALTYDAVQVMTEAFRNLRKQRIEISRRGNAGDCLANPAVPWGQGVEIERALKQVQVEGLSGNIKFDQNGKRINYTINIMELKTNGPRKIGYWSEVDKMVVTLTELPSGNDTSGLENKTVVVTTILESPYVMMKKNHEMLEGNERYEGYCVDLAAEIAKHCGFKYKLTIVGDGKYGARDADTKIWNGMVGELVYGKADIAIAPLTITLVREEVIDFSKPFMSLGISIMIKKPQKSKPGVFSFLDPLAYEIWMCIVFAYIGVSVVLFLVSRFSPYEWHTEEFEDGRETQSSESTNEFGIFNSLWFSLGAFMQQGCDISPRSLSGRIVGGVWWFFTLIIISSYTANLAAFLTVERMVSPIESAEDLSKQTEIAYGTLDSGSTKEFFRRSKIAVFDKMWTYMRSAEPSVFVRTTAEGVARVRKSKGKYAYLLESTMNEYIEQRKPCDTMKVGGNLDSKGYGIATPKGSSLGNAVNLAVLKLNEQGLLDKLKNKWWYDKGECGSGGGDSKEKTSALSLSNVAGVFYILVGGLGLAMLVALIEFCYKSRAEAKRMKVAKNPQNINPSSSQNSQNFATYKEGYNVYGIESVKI
UniProt Q9JLB9, residues 58-549: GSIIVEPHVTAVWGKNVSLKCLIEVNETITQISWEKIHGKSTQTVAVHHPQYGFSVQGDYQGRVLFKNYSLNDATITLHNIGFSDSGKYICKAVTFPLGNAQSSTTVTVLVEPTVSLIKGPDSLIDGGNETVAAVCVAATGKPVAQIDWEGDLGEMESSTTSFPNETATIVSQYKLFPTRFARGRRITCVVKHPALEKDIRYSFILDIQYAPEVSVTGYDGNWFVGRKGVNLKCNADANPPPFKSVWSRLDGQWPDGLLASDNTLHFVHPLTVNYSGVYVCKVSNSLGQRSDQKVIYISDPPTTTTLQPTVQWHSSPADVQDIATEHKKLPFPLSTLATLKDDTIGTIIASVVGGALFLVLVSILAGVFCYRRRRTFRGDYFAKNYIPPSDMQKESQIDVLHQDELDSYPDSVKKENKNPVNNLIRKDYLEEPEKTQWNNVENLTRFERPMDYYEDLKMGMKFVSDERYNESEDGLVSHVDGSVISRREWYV
UniProt P46934: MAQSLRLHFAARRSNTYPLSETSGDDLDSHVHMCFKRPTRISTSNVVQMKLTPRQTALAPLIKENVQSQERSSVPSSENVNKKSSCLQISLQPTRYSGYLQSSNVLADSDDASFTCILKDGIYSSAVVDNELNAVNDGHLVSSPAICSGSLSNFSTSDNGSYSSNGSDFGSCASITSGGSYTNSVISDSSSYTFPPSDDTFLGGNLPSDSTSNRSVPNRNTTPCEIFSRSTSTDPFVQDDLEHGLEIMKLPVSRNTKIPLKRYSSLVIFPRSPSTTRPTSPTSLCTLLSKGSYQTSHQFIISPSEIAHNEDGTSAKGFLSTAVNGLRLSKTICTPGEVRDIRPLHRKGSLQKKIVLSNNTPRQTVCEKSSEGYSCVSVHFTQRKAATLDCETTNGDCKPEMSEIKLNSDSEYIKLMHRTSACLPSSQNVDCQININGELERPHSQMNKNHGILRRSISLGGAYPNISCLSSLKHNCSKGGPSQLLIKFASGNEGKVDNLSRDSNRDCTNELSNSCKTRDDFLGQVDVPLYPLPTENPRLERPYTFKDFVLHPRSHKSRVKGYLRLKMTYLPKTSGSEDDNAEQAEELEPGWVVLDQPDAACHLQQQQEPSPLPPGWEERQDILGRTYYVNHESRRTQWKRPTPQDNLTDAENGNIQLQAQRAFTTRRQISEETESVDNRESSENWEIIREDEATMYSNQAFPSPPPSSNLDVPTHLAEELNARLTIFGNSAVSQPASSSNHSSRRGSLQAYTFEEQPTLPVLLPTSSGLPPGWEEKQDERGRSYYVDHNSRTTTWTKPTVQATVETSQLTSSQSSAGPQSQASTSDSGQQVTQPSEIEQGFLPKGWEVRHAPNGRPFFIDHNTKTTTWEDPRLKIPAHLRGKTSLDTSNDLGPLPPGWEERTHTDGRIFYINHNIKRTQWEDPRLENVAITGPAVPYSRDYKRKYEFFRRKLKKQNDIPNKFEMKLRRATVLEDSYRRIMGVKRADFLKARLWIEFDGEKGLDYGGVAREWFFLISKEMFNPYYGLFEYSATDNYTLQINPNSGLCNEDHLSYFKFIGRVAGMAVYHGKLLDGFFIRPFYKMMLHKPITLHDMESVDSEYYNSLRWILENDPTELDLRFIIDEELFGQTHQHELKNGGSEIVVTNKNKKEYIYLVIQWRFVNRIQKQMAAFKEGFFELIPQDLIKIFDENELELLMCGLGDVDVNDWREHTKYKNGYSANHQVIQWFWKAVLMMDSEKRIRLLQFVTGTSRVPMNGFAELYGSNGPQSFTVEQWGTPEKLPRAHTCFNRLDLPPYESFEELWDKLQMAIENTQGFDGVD
UniProt P46935: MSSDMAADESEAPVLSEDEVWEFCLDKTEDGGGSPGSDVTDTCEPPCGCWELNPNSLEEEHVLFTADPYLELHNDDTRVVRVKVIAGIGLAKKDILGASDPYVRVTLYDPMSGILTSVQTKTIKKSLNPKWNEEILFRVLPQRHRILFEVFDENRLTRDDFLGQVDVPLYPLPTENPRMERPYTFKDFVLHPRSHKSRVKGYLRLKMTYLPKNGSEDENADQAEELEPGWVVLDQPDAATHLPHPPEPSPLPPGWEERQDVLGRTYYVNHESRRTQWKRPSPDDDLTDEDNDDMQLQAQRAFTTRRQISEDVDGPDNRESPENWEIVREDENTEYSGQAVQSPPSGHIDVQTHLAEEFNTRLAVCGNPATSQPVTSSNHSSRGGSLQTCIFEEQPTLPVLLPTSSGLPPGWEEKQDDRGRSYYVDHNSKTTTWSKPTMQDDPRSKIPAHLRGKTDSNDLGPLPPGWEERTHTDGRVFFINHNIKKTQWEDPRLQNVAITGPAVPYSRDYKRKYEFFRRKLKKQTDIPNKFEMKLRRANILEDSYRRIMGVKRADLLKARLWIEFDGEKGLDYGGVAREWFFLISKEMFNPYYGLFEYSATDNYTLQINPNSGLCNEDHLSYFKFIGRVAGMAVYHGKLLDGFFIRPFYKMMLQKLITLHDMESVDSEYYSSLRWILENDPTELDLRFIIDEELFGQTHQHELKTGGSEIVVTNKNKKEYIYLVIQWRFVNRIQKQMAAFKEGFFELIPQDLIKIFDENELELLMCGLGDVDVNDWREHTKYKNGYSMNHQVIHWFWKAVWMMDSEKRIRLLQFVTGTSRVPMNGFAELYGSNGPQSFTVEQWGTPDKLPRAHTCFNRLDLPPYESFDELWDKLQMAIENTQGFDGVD
UniProt Q8C863: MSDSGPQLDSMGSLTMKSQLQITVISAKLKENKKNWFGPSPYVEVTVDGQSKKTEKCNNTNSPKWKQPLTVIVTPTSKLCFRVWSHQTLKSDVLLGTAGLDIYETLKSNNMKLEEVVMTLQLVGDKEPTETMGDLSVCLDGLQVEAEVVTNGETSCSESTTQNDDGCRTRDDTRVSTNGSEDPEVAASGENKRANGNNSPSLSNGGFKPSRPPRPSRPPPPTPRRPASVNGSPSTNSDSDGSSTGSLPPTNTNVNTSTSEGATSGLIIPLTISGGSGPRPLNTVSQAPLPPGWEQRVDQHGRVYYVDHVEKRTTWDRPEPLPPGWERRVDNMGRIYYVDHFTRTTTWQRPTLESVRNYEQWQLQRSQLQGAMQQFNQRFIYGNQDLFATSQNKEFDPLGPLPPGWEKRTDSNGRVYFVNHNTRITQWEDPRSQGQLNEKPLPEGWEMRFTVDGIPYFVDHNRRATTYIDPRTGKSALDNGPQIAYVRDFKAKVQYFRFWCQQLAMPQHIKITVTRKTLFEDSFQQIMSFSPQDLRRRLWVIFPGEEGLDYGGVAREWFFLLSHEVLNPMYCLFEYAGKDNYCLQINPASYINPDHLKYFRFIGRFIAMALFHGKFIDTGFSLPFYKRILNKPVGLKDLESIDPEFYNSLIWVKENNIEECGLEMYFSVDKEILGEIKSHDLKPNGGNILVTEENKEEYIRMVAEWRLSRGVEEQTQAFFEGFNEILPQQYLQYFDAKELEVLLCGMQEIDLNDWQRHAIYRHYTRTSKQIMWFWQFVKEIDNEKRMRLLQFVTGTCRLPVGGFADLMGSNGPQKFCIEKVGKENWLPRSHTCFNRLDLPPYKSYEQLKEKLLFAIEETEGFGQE

How the values were obtained:
SEP-tagged GluA2 = SEP-tagged GluA2 (UniProt P19491); experiment: co-IP; HEK293H cells transfected with SEP-GluA2 together with HA-SUSD4 or PVRL3α; lysis in 50 mM Tris-HCl pH 8, 1% Triton X100; precipitation of SEP-GluA2 with mouse anti-GFP antibody on protein G Dynabeads, 1 hr at 4°C; immunoblot for HA-SUSD4, GluA2 and PVRL3α
[1] = target: T1, HA-SUSD4-ΔPY (point mutation of the PPxY site) (mouse) (UniProt Q8BH32); experiment: co-IP; HEK293H cells transfected with SEP-GluA2 together with one of the HA-SUSD4 constructs; precipitation with rat anti-HA antibody on Dynabeads Protein G, 1 hr at 4°C; immunoblot for GluA2 and endogenous NEDD4
T1 sequence: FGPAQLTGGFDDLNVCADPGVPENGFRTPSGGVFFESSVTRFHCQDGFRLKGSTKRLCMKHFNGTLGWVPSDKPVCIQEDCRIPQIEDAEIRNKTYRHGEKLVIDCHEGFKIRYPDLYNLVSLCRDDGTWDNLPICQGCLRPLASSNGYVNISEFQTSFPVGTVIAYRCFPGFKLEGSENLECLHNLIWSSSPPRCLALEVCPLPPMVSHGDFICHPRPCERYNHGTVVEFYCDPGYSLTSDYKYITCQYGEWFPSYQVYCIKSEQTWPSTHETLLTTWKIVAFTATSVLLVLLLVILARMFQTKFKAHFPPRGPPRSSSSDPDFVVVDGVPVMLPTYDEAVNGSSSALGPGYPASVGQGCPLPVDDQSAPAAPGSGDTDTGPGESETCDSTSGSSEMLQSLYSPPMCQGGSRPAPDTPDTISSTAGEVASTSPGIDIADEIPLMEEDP

[2] = target: T2, HA-SUSD4-ΔPY/LY (double mutant at both PPxY and LPxY) (mouse) (UniProt Q8BH32); experiment: as above
T2 sequence: T1 sequence with L335A, Y338A

[3] = target: T3, HA-tagged full-length SUSD4 (mouse) (UniProt Q8BH32); experiment: as above
T3 sequence: T1 sequence with A370P, A373Y

[4] = target: T4, HA-SUSD4-ΔLY (point mutation of the LPxY site) (mouse) (UniProt Q8BH32); experiment: as above
T4 sequence: T1 sequence with L335A, Y338A, A370P, A373Y

[5] = target: T5, HA-SUSD4-ΔNT (lacking the extracellular domain) (mouse) (UniProt Q8BH32); experiment: as above
T5 sequence: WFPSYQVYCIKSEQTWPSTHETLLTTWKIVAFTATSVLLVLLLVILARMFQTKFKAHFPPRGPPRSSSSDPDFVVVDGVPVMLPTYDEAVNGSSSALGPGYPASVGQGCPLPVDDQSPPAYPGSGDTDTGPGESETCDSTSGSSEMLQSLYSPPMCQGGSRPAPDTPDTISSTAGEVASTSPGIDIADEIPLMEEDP

[6] = target: T3, HA-tagged full-length SUSD4 (mouse); experiment: pull-down; HA-SUSD4 or HA-SUSD4ΔCT from transfected HEK293H lysate held on anti-HA antibody and protein G-sepharose beads (or GFP-coated beads as control), washed, incubated 3 hr at 4°C with lysate of cerebellar synaptosomes of P30 WT mice; washes with lysis buffer plus 0.1% SDS; immunoblot for NEDD4, ITCH, WWP1 and HA; only the target purified
[7] = target: T6, HA-SUSD4-NT (extracellular form of SUSD4) (mouse) (UniProt Q8BH32); experiment: co-IP; HEK293H cells transfected with SEP-GluA2 together with one of the HA-SUSD4 constructs; precipitation with rat anti-HA antibody on Dynabeads Protein G, 1 hr at 4°C; immunoblot for GluA2 and endogenous NEDD4
T6 sequence: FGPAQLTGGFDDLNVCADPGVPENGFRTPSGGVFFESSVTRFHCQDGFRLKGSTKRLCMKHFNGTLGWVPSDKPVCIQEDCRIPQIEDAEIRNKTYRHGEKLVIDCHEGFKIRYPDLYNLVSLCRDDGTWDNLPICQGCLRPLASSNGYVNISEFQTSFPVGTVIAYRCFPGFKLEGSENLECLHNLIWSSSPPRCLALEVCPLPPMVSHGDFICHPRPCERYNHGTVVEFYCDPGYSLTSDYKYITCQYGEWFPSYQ

Question: With “PVRL3α (control transmembrane protein) (from UniProt Q9JLB9 58-549)” as the molecule, how does the binding (SEP-tagged GluA2) read?
Answer: The binding was “no binding”.

Question: Which results are given for “HECT ubiquitin ligase NEDD4 (endogenous in HEK293 cells) (from UniProt P46934 1-1319) (enzyme)”?
Answer: binding [1]: binds; binding [2]: no binding; binding [3]: binds; binding [4]: no binding; binding [5]: binds

Question: With “NEDD4-like E3 ubiquitin-protein ligase WWP1 (from UniProt Q8BZZ3 1-918) (enzyme)” as the molecule, how does the binding [6] read?
Answer: Its binding is “binds”.

Question: With “E3 ubiquitin-protein ligase NEDD4 (from UniProt P46935 1-887) (enzyme)” as the molecule, how does the binding [6] read?
Answer: The binding was “binds”.

Question: What does the source list for “SEP-tagged GluA2 (from UniProt P19491 22-883) (receptor)”?
Answer: binding [7]: binds; binding [2]: binds; binding [3]: binds; binding [4]: binds; binding [5]: binds

Question: With “E3 ubiquitin-protein ligase Itchy (from UniProt Q8C863 1-864) (enzyme)” as the molecule, how does the binding [6] read?
Answer: The binding was “binds”.

B1: HA-tagged full-length SUSD4 (protein, UniProt Q8BH32-1 42-490)
chain: T1 sequence with A370P, A373Y
Question: B1 was tested. Which binding (SEP-tagged GluA2) did it give?
Answer: Its binding is “binds”.
